At least one peptide structure holds a part that was inferred or is arguable (an end, a ring closure or a residue). Where a SMILES comes first, the peptide text is derived from it. The star is where a group is joined. Biotin = O=C1N[C@H]2[C@H](CS[C@H]2CCCCC(=O)*)N1
Key:
Test in all cases: Pull-down of Halo-tagged ETS proteins with biotinylated peptides
Format in all cases: binding
Conditions in all cases: Halo-tagged full-length protein
ETS1 = target: T1, ETS1 (Homo sapiens, UniProt P14921)
T1 construct: the full-length ERG, ETS1, ETV1, ETV6, Fli1, Spi1 and the ERG mutant Y373A were expressed as fusion proteins; made in house; host or cells: cell-free, TNT SP6 High-Yield Wheat Germ (Promega)
T1 sequence (P14921 1-441): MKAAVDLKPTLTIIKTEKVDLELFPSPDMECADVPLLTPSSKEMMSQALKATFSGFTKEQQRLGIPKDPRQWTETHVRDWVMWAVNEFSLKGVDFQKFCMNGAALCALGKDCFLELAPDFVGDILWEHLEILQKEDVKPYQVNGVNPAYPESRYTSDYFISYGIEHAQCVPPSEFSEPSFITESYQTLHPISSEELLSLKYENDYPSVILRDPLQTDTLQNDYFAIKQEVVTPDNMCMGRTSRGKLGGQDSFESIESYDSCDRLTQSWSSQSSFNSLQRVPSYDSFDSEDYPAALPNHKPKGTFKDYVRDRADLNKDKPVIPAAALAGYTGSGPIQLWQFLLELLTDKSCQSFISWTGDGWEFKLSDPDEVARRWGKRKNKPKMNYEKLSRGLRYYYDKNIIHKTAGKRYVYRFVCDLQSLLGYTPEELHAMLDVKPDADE

ETV6 = target: T2, ETV6 (Homo sapiens, UniProt P41212)
T2 construct: the full-length ERG, ETS1, ETV1, ETV6, Fli1, Spi1 and the ERG mutant Y373A were expressed as fusion proteins; made in house; host or cells: cell-free, TNT SP6 High-Yield Wheat Germ (Promega)
T2 sequence (P41212 1-452): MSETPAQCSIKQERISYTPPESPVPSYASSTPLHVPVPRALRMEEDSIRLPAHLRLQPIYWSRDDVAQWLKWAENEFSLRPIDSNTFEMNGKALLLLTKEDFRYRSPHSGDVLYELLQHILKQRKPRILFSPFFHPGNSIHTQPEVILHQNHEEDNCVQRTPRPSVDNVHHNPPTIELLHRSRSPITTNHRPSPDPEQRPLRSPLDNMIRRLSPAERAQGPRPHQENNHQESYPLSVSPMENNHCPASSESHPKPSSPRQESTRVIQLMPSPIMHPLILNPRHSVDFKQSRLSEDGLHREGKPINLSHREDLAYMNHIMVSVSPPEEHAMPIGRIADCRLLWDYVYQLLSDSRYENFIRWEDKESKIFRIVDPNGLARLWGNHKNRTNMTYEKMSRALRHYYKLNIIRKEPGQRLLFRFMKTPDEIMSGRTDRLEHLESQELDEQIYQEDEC

Fli1 = target: T3, Fli1 (Homo sapiens, UniProt Q01543)
T3 construct: the full-length ERG, ETS1, ETV1, ETV6, Fli1, Spi1 and the ERG mutant Y373A were expressed as fusion proteins; made in house; host or cells: cell-free, TNT SP6 High-Yield Wheat Germ kit (Promega)
T3 sequence (Q01543 1-452): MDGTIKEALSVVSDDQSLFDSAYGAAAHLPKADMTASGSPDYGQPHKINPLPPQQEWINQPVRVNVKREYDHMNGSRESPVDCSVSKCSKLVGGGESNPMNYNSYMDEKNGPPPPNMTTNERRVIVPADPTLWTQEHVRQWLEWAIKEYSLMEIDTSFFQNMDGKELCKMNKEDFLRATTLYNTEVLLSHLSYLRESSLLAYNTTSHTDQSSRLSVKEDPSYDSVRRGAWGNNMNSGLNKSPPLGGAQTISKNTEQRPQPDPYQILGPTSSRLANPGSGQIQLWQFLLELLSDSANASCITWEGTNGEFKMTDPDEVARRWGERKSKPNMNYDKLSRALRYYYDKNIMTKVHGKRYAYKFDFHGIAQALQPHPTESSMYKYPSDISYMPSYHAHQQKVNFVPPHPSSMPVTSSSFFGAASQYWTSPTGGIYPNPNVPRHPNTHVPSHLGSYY

Spi1 = target: T4, Spi1 (Homo sapiens, UniProt P17947)
T4 construct: the full-length ERG, ETS1, ETV1, ETV6, Fli1, Spi1 and the ERG mutant Y373A were expressed as fusion proteins; made in house; host or cells: cell-free, TNT SP6 High-Yield Wheat Germ kit (Promega)

ETV1 = target: T5, ETV1 (Homo sapiens, UniProt P50549); parameters: the full-length ERG, ETS1, ETV1, ETV6, Fli1, Spi1 and the ERG mutant Y373A were expressed as fusion proteins; made in house; host or cells: cell-free, TNT SP6 High-Yield Wheat Germ kit (Promega)
T5 sequence (P50549 1-477): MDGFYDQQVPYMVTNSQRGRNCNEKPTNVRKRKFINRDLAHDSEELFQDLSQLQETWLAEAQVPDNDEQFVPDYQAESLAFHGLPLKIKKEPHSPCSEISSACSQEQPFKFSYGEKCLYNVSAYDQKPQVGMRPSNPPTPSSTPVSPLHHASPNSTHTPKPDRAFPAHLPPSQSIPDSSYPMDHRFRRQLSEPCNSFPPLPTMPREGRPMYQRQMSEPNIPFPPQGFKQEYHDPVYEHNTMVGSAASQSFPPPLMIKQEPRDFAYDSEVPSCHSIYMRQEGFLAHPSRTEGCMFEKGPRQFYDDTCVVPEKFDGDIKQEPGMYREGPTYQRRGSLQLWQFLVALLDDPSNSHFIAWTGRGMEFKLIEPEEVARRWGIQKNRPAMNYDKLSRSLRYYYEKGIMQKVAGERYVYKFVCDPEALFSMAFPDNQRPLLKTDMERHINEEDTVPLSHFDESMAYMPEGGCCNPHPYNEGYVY

## CC(C)C[C@H](NC(=O)CCCC[C@@H]1SC[C@@H]2NC(=O)N[C@@H]21)C(=O)N[C@@H](CO)C(=O)N[C@@H](Cc1ccccc1)C(=O)NCC(=O)N[C@@H](CO)C(=O)N[C@@H](CC(C)C)C(=O)N1CCC[C@H]1C(=O)O [biotin-EIP2, Biotin-LSFGSLP] (Biotin-LSFGSLP-OH)
ETS1
  interaction with ETS1: interact strongly
ETV6
  interaction with ETV6: interact strongly
Fli1
  interaction with Fli1: to less extend
Spi1
  interaction with Spi1: No interaction was detected
ETV1
  interaction with ETV1: to less extend

— US10774122B2, “ERG targeted therapy” (The Regents of the University of Michigan, priority 2017, dated 2020)
